# Data: the supplement of paper PMC8728848
# The other results are listed elsewhere or left out.
# Key:
# Assay in all cases: glycan array binding signal (z-score within array); higher = stronger binding
# Details in all cases: glycan notation: IUPAC condensed, linker removed
# [1] = target: GlcNAc(b1-2)[GlcNAc(b1-4)]Man(a1-3)[GlcNAc(b1-4)][GlcNAc(b1-2)[GlcNAc(b1-6)]Man(a1-6)]Man(b1-4)GlcNAc(b1-4)GlcNAc
# How it was run: (§1)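 Columns mapping to the same glycan were averaged after glycan names were converted to IUPAC-condensed notation. The data come from 3228 arrays in the Consortium for Functional Glycomics database, limited to those with an available protein sequence. Binding is reported as a within-array Z-score averaged across arrays of one protein sequence and across linkers.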
# [2] = target: GlcNAc(b1-2)[GlcNAc(b1-4)]Man(a1-3)[GlcNAc(b1-4)][GlcNAc(b1-2)[GlcNAc(b1-6)]Man(a1-6)]Man(b1-4)GlcNAc(b1-4)[Fuc(a1-6)]GlcNAc
# How it was run: as §1
# [3] = target: GlcNAc(b1-2)[GlcNAc(b1-6)]Man(a1-6)[GlcNAc(b1-2)Man(a1-3)]Man(b1-4)GlcNAc(b1-4)GlcNAc
# How it was run: as §1
# [4] = target: GlcNAc(b1-2)[GlcNAc(b1-6)]Man(a1-6)[GlcNAc(b1-2)Man(a1-3)]Man(b1-4)GlcNAc(b1-4)[Fuc(a1-6)]GlcNAc
# How it was run: as §1
# [5] = target: GlcNAc(b1-2)[GlcNAc(b1-6)]Man(a1-6)[GlcNAc(b1-4)][GlcNAc(b1-2)Man(a1-3)]Man(b1-4)GlcNAc(b1-4)GlcNAc
# How it was run: as §1
# GlcNAc(b1-3)Fuc = target: GlcNAc(b1-3)Fuc
# How it was run: as §1
# GlcNAc(b1-3)Gal = target: GlcNAc(b1-3)Gal
# How it was run: as §1
# [6] = target: GlcNAc(b1-3)Gal(b1-3)GalNAc
# How it was run: as §1
# GlcNAc(b1-3)Gal(b1-4)Glc = target: GlcNAc(b1-3)Gal(b1-4)Glc
# How it was run: as §1
# [7] = target: GlcNAc(b1-3)Gal(b1-4)GlcNAc
# How it was run: as §1
# [8] = target: GlcNAc(b1-3)Gal(b1-4)GlcNAc(b1-2)Man(a1-3)[GlcNAc(b1-3)Gal(b1-4)GlcNAc(b1-2)Man(a1-6)]Man(b1-4)GlcNAc(b1-4)GlcNAc
# How it was run: as §1
# [9] = target: GlcNAc(b1-3)Gal(b1-4)GlcNAc(b1-2)Man(a1-3)[GlcNAc(b1-3)Gal(b1-4)GlcNAc(b1-2)Man(a1-6)]Man(b1-4)GlcNAc(b1-4)[Fuc(a1-6)]GlcNAc
# How it was run: as §1
# [10] = target: GlcNAc(b1-3)Gal(b1-4)GlcNAc(b1-2)[GlcNAc(b1-3)Gal(b1-4)GlcNAc(b1-6)]Man(a1-6)[GlcNAc(b1-3)Gal(b1-4)GlcNAc(b1-2)Man(a1-3)]Man(b1-4)GlcNAc(b1-4)GlcNAc
# How it was run: as §1
# [11] = target: GlcNAc(b1-3)Gal(b1-4)GlcNAc(b1-3)Gal(b1-4)GlcNAc
# How it was run: as §1
# [12] = target: GlcNAc(b1-3)Gal(b1-4)GlcNAc(b1-3)Gal(b1-4)GlcNAc(b1-2)Man(a1-3)[GlcNAc(b1-3)Gal(b1-4)GlcNAc(b1-3)Gal(b1-4)GlcNAc(b1-2)Man(a1-6)]Man(b1-4)GlcNAc(b1-4)GlcNAc
# How it was run: as §1
# [13] = target: GlcNAc(b1-3)Gal(b1-4)GlcNAc(b1-3)Gal(b1-4)GlcNAc(b1-2)Man(a1-3)[GlcNAc(b1-3)Gal(b1-4)GlcNAc(b1-3)Gal(b1-4)GlcNAc(b1-2)Man(a1-6)]Man(b1-4)GlcNAc(b1-4)[Fuc(a1-6)]GlcNAc
# How it was run: as §1
# [14] = target: GlcNAc(b1-3)Gal(b1-4)GlcNAc(b1-3)Gal(b1-4)GlcNAc(b1-2)[GlcNAc(b1-3)Gal(b1-4)GlcNAc(b1-3)Gal(b1-4)GlcNAc(b1-6)]Man(a1-6)[GlcNAc(b1-3)Gal(b1-4)GlcNAc(b1-3)Gal(b1-4)GlcNAc(b1-2)Man(a1-3)]Man(b1-4)GlcNAc(b1-4)[Fuc(a1-6)]GlcNAc
# How it was run: as §1
# [15] = target: GlcNAc(b1-3)Gal(b1-4)GlcNAc(b1-3)Gal(b1-4)GlcNAc(b1-3)Gal(b1-4)GlcNAc(b1-2)Man(a1-3)[GlcNAc(b1-3)Gal(b1-4)GlcNAc(b1-3)Gal(b1-4)GlcNAc(b1-3)Gal(b1-4)GlcNAc(b1-2)Man(a1-6)]Man(b1-4)GlcNAc(b1-4)GlcNAc
# How it was run: as §1
# [16] = target: GlcNAc(b1-3)Gal(b1-4)GlcNAc(b1-3)Gal(b1-4)GlcNAc(b1-3)Gal(b1-4)GlcNAc(b1-2)Man(a1-3)[GlcNAc(b1-3)Gal(b1-4)GlcNAc(b1-3)Gal(b1-4)GlcNAc(b1-3)Gal(b1-4)GlcNAc(b1-2)Man(a1-6)]Man(b1-4)GlcNAc(b1-4)[Fuc(a1-6)]GlcNAc
# How it was run: as §1
# [17] = target: GlcNAc(b1-3)Gal(b1-4)GlcNAc(b1-3)Gal(b1-4)GlcNAc(b1-3)Gal(b1-4)GlcNAc(b1-2)[GlcNAc(b1-3)Gal(b1-4)GlcNAc(b1-3)Gal(b1-4)GlcNAc(b1-3)Gal(b1-4)GlcNAc(b1-6)]Man(a1-6)[GlcNAc(b1-3)Gal(b1-4)GlcNAc(b1-3)Gal(b1-4)GlcNAc(b1-3)Gal(b1-4)GlcNAc(b1-2)Man(a1-3)]Man(b1-4)GlcNAc(b1-4)[Fuc(a1-6)]GlcNAc
# How it was run: as §1
# [18] = target: GlcNAc(b1-3)Gal(b1-4)GlcNAc(b1-3)Gal(b1-4)GlcNAc(b1-3)Gal(b1-4)GlcNAc(b1-3)Gal(b1-4)GlcNAc(b1-2)Man(a1-3)[GlcNAc(b1-3)Gal(b1-4)GlcNAc(b1-3)Gal(b1-4)GlcNAc(b1-3)Gal(b1-4)GlcNAc(b1-3)Gal(b1-4)GlcNAc(b1-2)Man(a1-6)]Man(b1-4)GlcNAc(b1-4)GlcNAc
# How it was run: as §1
# [19] = target: GlcNAc(b1-3)Gal(b1-4)GlcNAc(b1-3)Gal(b1-4)GlcNAc(b1-3)Gal(b1-4)GlcNAc(b1-3)Gal(b1-4)GlcNAc(b1-2)Man(a1-3)[GlcNAc(b1-3)Gal(b1-4)GlcNAc(b1-3)Gal(b1-4)GlcNAc(b1-3)Gal(b1-4)GlcNAc(b1-3)Gal(b1-4)GlcNAc(b1-2)Man(a1-6)]Man(b1-4)GlcNAc(b1-4)[Fuc(a1-6)]GlcNAc
# How it was run: as §1
# [20] = target: GlcNAc(b1-3)Gal(b1-4)GlcNAc(b1-3)Gal(b1-4)GlcNAc(b1-3)Gal(b1-4)GlcNAc(b1-3)Gal(b1-4)GlcNAc(b1-2)[GlcNAc(b1-3)Gal(b1-4)GlcNAc(b1-3)Gal(b1-4)GlcNAc(b1-3)Gal(b1-4)GlcNAc(b1-3)Gal(b1-4)GlcNAc(b1-6)]Man(a1-6)[GlcNAc(b1-3)Gal(b1-4)GlcNAc(b1-3)Gal(b1-4)GlcNAc(b1-3)Gal(b1-4)GlcNAc(b1-3)Gal(b1-4)GlcNAc(b1-2)Man(a1-3)]Man(b1-4)GlcNAc(b1-4)[Fuc(a1-6)]GlcNAc
# How it was run: as §1
# [21] = target: GlcNAc(b1-3)Gal(b1-4)GlcNAc(b1-3)Gal(b1-4)GlcNAc(b1-3)GalNAc
# How it was run: as §1
# [22] = target: GlcNAc(b1-3)Gal(b1-4)GlcNAc(b1-3)GalNAc
# How it was run: as §1
# [23] = target: GlcNAc(b1-3)Gal(b1-4)GlcNAc(b1-3)[GlcNAc(b1-3)Gal(b1-4)GlcNAc(b1-3)]GalNAc
# How it was run: as §1
# [24] = target: GlcNAc(b1-3)Gal(b1-4)GlcNAc(b1-6)[Gal(b1-3)]GalNAc
# How it was run: as §1
# [25] = target: GlcNAc(b1-3)Gal(b1-4)GlcNAc(b1-6)[GlcNAc(b1-3)Gal(b1-3)]GalNAc
# How it was run: as §1
# [26] = target: GlcNAc(b1-3)Gal(b1-4)GlcNAc(b1-6)[GlcNAc(b1-3)]Gal(b1-4)GlcNAc
# How it was run: as §1
# GlcNAc(b1-3)GalNAc = target: GlcNAc(b1-3)GalNAc
# How it was run: as §1
# GlcNAc(b1-3)Man = target: GlcNAc(b1-3)Man
# How it was run: as §1
# [27] = target: GlcNAc(b1-3)[GlcNAc(b1-4)][GlcNAc(b1-6)]GlcNAc
# How it was run: as §1
# [28] = target: GlcNAc(b1-3)[GlcNAc(b1-6)]Gal(b1-4)GlcNAc
# How it was run: as §1
# [29] = target: GlcNAc(b1-3)[GlcNAc(b1-6)]GalNAc
# How it was run: as §1
# [30] = target: GlcNAc(b1-4)Gal(b1-4)GlcNAc
# How it was run: as §1
# GlcNAc(b1-4)GlcNAc = target: GlcNAc(b1-4)GlcNAc
# How it was run: as §1
# [31] = target: GlcNAc(b1-4)GlcNAc(b1-4)GlcNAc
# How it was run: as §1
# [32] = target: GlcNAc(b1-4)GlcNAc(b1-4)GlcNAc(b1-4)GlcNAc(b1-4)GlcNAc
# How it was run: as §1
binder,measurement,setting,value
SP15308A-bot-339-19-339 (Bacteroides ovatus) (protein) ACNNEWEDEQYEQYISFKSPIPAGGEGVTDIYVRYKEDGKVTYRLPIVVSGSTTNTLDREVHIAVDKDTLETLNIERFSIHRPGLWYTALEEDKYDFPKTVHISAGSSVEQLNIDFNLQGIDMLEKWVLPLTIVDDPSYNYKSHPRKNYAKALLRVIPFNNYSGSYTSSAMKVYTYINGKPDTNARTANKRTGYVINDNTVFFYAGLISEDLDKEVREKYKINVHFNEDGTLHMEQGDPTNKMKFELIGTPTYSKTSVMDATRPYLERRYVQIMFEYDFEDFSYGGNGVDVIPIKYKVEGSMTLQRNINTQIPDEDQQIEW,glycan array binding signal (z-score),[1],-0.391
same,glycan array binding signal (z-score),[2],-0.358
same,glycan array binding signal (z-score),[3],-0.299
same,glycan array binding signal (z-score),[4],-0.15
same,glycan array binding signal (z-score),[5],0.157
same,glycan array binding signal (z-score),GlcNAc(b1-3)Fuc,0.371
same,glycan array binding signal (z-score),GlcNAc(b1-3)Gal,-0.64
same,glycan array binding signal (z-score),[6],-0.206
same,glycan array binding signal (z-score),GlcNAc(b1-3)Gal(b1-4)Glc,0.17
same,glycan array binding signal (z-score),[7],-0.233
same,glycan array binding signal (z-score),[8],-0.006
same,glycan array binding signal (z-score),[9],0.083
same,glycan array binding signal (z-score),[10],0.155
same,glycan array binding signal (z-score),[11],0.055
same,glycan array binding signal (z-score),[12],0.131
same,glycan array binding signal (z-score),[13],0.848
same,glycan array binding signal (z-score),[14],-0.141
same,glycan array binding signal (z-score),[15],-0.146
same,glycan array binding signal (z-score),[16],-0.318
same,glycan array binding signal (z-score),[17],0.006
same,glycan array binding signal (z-score),[18],-0.226
same,glycan array binding signal (z-score),[19],-0.027
same,glycan array binding signal (z-score),[20],0.133
same,glycan array binding signal (z-score),[21],-0.503
same,glycan array binding signal (z-score),[22],0.5
same,glycan array binding signal (z-score),[23],0.148
same,glycan array binding signal (z-score),[24],0.223
same,glycan array binding signal (z-score),[25],-0.227
same,glycan array binding signal (z-score),[26],-0.086
same,glycan array binding signal (z-score),GlcNAc(b1-3)GalNAc,-0.484
same,glycan array binding signal (z-score),GlcNAc(b1-3)Man,-0.188
same,glycan array binding signal (z-score),[27],-0.192
same,glycan array binding signal (z-score),[28],-0.304
same,glycan array binding signal (z-score),[29],-0.544
same,glycan array binding signal (z-score),[30],-0.193
same,glycan array binding signal (z-score),GlcNAc(b1-4)GlcNAc,-0.421
same,glycan array binding signal (z-score),[31],-0.575
same,glycan array binding signal (z-score),[32],-0.452
